Experimental data from PubChem BioAssay AID328 (DTP/NCI, 2004).
This continues a long series; more values of the same kind are listed elsewhere. Inconclusive results and toxic doses are left out. The calls were made as follows: active = survival T/C of 150% or more; inactive = T/C below 125% in these data.

Test system: BDF1 mice, P388 leukemia ip, median survival T/C
Test: NCI In Vivo Anticancer Drug Screen. Data for tumor model P388 Leukemia (intraperitoneal) in B6D2F1 (BDF1) mice
Conditions: endpoint: median survival time, higher = longer survival
Protocol: The antitumor activity of compounds was measured in mice bearing transplantable tumors. Survival or tumor size were measured and the results are expressed as the measurement made in the treated group (T) divided by the measurement made in the vehicle treated control group (C). The tumor model used in this assay is P388 Leukemia (intraperitoneal) in B6D2F1 (BDF1) mice

Measured: T/C

COc1cccc2c1C(=O)c1c(O)c3c(c(O)c1C2=O)C[C@@](O)(C(C)=O)C[C@@H]3OC1CC(N)C(O)C(C)O1 (some centres not stated)
active: dose: 0.36 mg/kg/injection, schedule: Q## X010 (ip), vehicle: saline 220 % of control | dose: 0.37 mg/kg/injection, schedule: Q01DX010 (ip), vehicle: saline 200 % of control | dose: 0.75 mg/kg/injection, schedule: Q01DX010 (ip), vehicle: saline 235 % of control | dose: 0.9 mg/kg/injection, schedule: Q01DX009 (ip), vehicle: clinical formulation 221 % of control | dose: 1.0 mg/kg/injection, schedule: Q04DX003 (ip), vehicle: saline 220 % of control | dose: 1.5 mg/kg/injection, schedule: Q01DX010 (ip), vehicle: saline 300 % of control | dose: 3.0 mg/kg/injection, schedule: Q01DX010 (ip), vehicle: saline 170 % of control
